Out of some 300,000 compounds screened, about 1,200 (0.4%) were called active. Inconclusive results, whose numbers are uncertain, are shown with a selection of clear calls. Calls follow the shape of the dose curve; as a rule, active = well fitted inhibition curve with a large enough effect; inconclusive = small, poorly fitted or top-dose-only effect, or another doubt; inactive = no such curve, though single readings can be large or run the other way. Potencies of inconclusive entries are doubtful fits and often do not repeat.
molecular target: Lysosomal alpha-glucosidase (Homo sapiens) (UniProt P10253); experiment: qHTS Assay for Inhibitors and Activators of Human alpha-Glucosidase Cleavage of Glycogen; settings: recombinant GAA, glycogen substrate, Amplex Red glucose oxidase fluorescence; activity change, negative = inhibition: at 76.4 µM (top of the series) unless noted;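 as to activity change, negative = inhibition: 0% = full enzyme reaction and -100% = no-enzyme basal signal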
Outline: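 qHTS, 1536-well; enzyme 4 nM final; cpd up to 77 uM; substrate bovine liver glycogen 30 ug; 50 mM citrate/phosphate pH 5.0, 0.01% Tween-20; 37 C, 40 min; Amplex Red detection 45 min RT; Hill fit → AC50.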
Potency is read from the fitted curve at half-maximal effect.

**Q.** Which Potency does the source give for Cc1ccc(-n2nc(C(=O)NN)c(C)c(C#N)c2=O)cc1Cl here?
**A.** Its Potency is inconclusive: 35.5 µM [inhibitor, single point].

**Q.** How did the Potency turn out when O=C(CSc1nc2ccccc2o1)Nc1ccccc1N1CCCCCC1 was run?
**A.** The Potency was inconclusive: 35.5 µM [inhibitor, partial curve].

**Q.** Which Potency does the source give for CCOC(=O)c1c(C)n(C)c2ccc(O)c(CN(C)C)c12 here?
**A.** Its Potency is active: 25.1 µM.

**Q.** For CN1C(=S)N2CCCN2C1c1ccccc1 (configuration not stated), which Potency is on record?
**A.** Its Potency is inconclusive: 28.2 µM [inhibitor, partial curve].

**Q.** How did the Potency turn out when CCc1ccc2c(c1)c(=O)c(S(=O)(=O)c1ccc(F)cc1)cn2CC(=O)Nc1ccc(C)cc1C was run?
**A.** Its Potency is inconclusive: 10 µM [inhibitor, single point].

**Q.** How did the “activity change, negative = inhibition” value turn out when Cc1cc(C)n(C)c(=O)c1C#N was run?
**A.** The value was inactive: -7.17%.

**Q.** How did the Potency turn out when Cc1cccc2nc(-c3ccco3)c(Nc3ccc4c(c3)OCO4)n12 was run?
**A.** Its Potency is inconclusive: 3.98 µM [inhibitor, full curve].

**Q.** Which Potency does the source give for O=c1[nH]c(S)nc2sc3c(c12)CCCC3 here?
**A.** Its Potency is inconclusive: 22.4 µM [inhibitor, partial curve].

**Q.** CCCC(C)NNC(=O)c1cc2ccccc2[nH]1 (configuration not stated) was tested. Which Potency did it give?
**A.** The Potency was inconclusive: 11.2 µM [inhibitor, partial curve].

**Q.** With O=C(CSc1nc2ccccc2n1CCc1ccccc1)N1CCOCC1 as the compound, how does the “activity change, negative = inhibition” value read?
**A.** The value was inactive: 6.83%.

**Q.** COc1ccc(N2C(=O)C(Cl)=C(Nc3c(C)n(C)n(-c4ccccc4)c3=O)C2=O)cc1 was tested. Which Potency did it give?
**A.** The Potency was active: 25.1 µM.

**Q.** How did the “activity change, negative = inhibition” value turn out when COC(=O)c1ccc(NC(=O)CCS(=O)(=O)c2ccc(Br)cc2)cc1 was run?
**A.** The value was inactive: 1.59%.

**Q.** For COC(=O)C(NC(=O)CC(C)C)(Nc1nc2c(s1)CCCC2)C(F)(F)F (configuration not stated), which Potency is on record?
**A.** The Potency was inconclusive: 7.08 µM [inhibitor, partial curve].

**Q.** How did the Potency turn out when COC(=O)C1=C(C)Nc2c(c(=O)n(C)c(=O)n2C)C1c1cccnc1 (configuration not stated) was run?
**A.** The Potency was inconclusive: 39.5 µM [inhibitor, single point].

**Q.** For CC(=O)NC(=S)NNC(=O)c1ccc(Br)cc1, which Potency is on record?
**A.** The Potency was inconclusive: 15.8 µM [inhibitor, partial curve, poor fit].

**Q.** For COc1ccccc1C(=O)NNC(=O)c1sccc1-n1cccc1, which Potency is on record?
**A.** Its Potency is inconclusive: 22.4 µM [inhibitor, partial curve].

**Q.** Which Potency does the source give for CC(C)Oc1ccc(CCc2n[nH]c(=S)n2-c2ccccc2)cc1 here?
**A.** Its Potency is inconclusive: 28 µM [inhibitor, single point].

**Q.** With O=C(Nc1cccnc1)c1ccc(-c2ccccc2)cc1 as the compound, how does the Potency read?
**A.** The Potency was inconclusive: 56.2 µM [inhibitor, partial curve, poor fit].

**Q.** Which Potency does the source give for CCOC(=O)C1CCCN(C(=S)Nc2ccc(OC)cc2)C1 (configuration not stated) here?
**A.** Its Potency is inconclusive: 50.1 µM [inhibitor, single point].

**Q.** For Sc1oc(-c2ccccc2)cc1C=Nc1ccccc1, which Potency is on record?
**A.** The Potency was inconclusive: 28 µM [inhibitor, single point].

**Q.** COc1cccc(/C=C/c2[nH]c(=O)[nH]c(=O)c2[N+](=O)[O-])c1O was tested. Which Potency did it give?
**A.** The Potency was inconclusive: 12.6 µM [inhibitor, partial curve].

**Q.** Cc1ccccc1Nc1c(-c2ccccn2)nc2c(C)cccn12 was tested. Which Potency did it give?
**A.** The Potency was inconclusive: 5.01 µM [inhibitor, full curve].

**Q.** With Cc1ccc(-n2c(Cc3ccccc3)nnc2SCc2nc(-c3cccs3)no2)cc1 as the compound, how does the Potency read?
**A.** The Potency was inconclusive: 11.2 µM [inhibitor, single point].

**Q.** For Cc1cc(C)nc(N/N=C/c2cc(C)n(CC(F)(F)F)c2C)n1, which Potency is on record?
**A.** The Potency was inconclusive: 10 µM [inhibitor, full curve].

**Q.** For O=C(NNS(=O)(=O)c1ccc(F)cc1F)c1csc(-c2cccnc2)n1, which Potency is on record?
**A.** Its Potency is inconclusive: 50.1 µM [inhibitor, single point].

**Q.** COc1ccc(Nc2oc(-c3ccc(Cl)cc3)nc2C#N)cc1 was tested. Which Potency did it give?
**A.** The Potency was inconclusive: 22.4 µM [inhibitor, single point].

**Q.** For Cc1nn(-c2ccccc2)c(OC(=O)C(C)C)c1Sc1ccc(Cl)cc1, which Potency is on record?
**A.** Its Potency is inconclusive: 28.2 µM [inhibitor, single point].

**Q.** How did the Potency turn out when COc1cc(/C=N/N=C/c2cc(OC)c(O)c(OC)c2)cc(OC)c1O was run?
**A.** Its Potency is inconclusive: 39.5 µM [inhibitor, single point].

**Q.** How did the Potency turn out when COc1cc(C(=O)Oc2c(Sc3ccccc3)c(C)nn2-c2ccccc2)cc(OC)c1OC was run?
**A.** Its Potency is inconclusive: 31.6 µM [inhibitor, partial curve].

**Q.** How did the Potency turn out when CC(C)C(NC(=S)Nc1ccccc1)C(=O)O (configuration not stated) was run?
**A.** The Potency was inconclusive: 35.5 µM [inhibitor, single point].

**Q.** Which Potency does the source give for COc1cc(/C=N/n2c(C3CCCCC3)n[nH]c2=S)cc(Br)c1O here?
**A.** The Potency was inconclusive: 50.1 µM [inhibitor, single point].

**Q.** Which Potency does the source give for CCSC1=NC2(CCCCC2)Nc2sc3c(c21)CCCC3 here?
**A.** The Potency was inconclusive: 31.4 µM [inhibitor, partial curve].

**Q.** For Nc1cc2c([N+](=O)[O-])cccc2o1, which Potency is on record?
**A.** The Potency was inconclusive: 31.4 µM [inhibitor, single point].

**Q.** How did the Potency turn out when Cc1ccc2[nH]c3c(c2c1)CN(C(=O)CN1CCN(Cc2ccc4c(c2)OCO4)CC1)CC3 was run?
**A.** The Potency was inconclusive: 28.2 µM [inhibitor, partial curve].

**Q.** For O=C(NNc1ccc([N+](=O)[O-])cc1)c1ccccc1F, which Potency is on record?
**A.** Its Potency is inconclusive: 15.8 µM [inhibitor, partial curve].

**Q.** Which Potency does the source give for CCCc1cc(-c2n[nH]c(=S)n2-c2cccc(C)c2)cs1 here?
**A.** Its Potency is inconclusive: 15.8 µM [inhibitor, partial curve].

**Q.** For CC1CC(C)CN(S(=O)(=O)c2ccc(NN)nc2)C1 (configuration not stated), which Potency is on record?
**A.** Its Potency is inconclusive: 14.1 µM [inhibitor, partial curve].

**Q.** Which “activity change, negative = inhibition” value does the source give for NC(=O)SCC(=O)Nc1ccc(Cl)cc1 here?
**A.** The value was inactive: -5.92%.

**Q.** Which Potency does the source give for CC(C)(C)c1cc(C(=O)NNc2cc(C(F)(F)F)ccc2Cl)n(Cc2ccccc2)n1 here?
**A.** The Potency was inconclusive: 50.1 µM [inhibitor, single point].

**Q.** For CCOC(=O)c1c(-c2ccccc2)n(C)c2ccc(O)cc12, which Potency is on record?
**A.** Its Potency is inconclusive: 22.4 µM [inhibitor, single point].

**Q.** Which Potency does the source give for CN(C)c1ccc(CNn2cnnc2SCC(=O)NC(C)(C)C)cc1 here?
**A.** The Potency was inconclusive: 12.5 µM [inhibitor, partial curve].

**Q.** COc1ccc(CNc2nc(NCc3ccc(OC)cc3)n(C(=O)c3ccncc3)n2)cc1 was tested. Which Potency did it give?
**A.** The Potency was inconclusive: 7.94 µM [inhibitor, full curve].

Reference: PubChem BioAssay AID2100 (National Center for Advancing Translational Sciences (NCATS), 2009)
